Test results published in ChEMBL document CHEMBL1157539, “Thousands of chemical starting points for antimalarial lead identification” (Nature, 2010).
The full ranking holds about 13,000 compounds; the median of “IFI” is about 4, and the highest 2% start at about 17. Some of the results follow.

assay: GSK_TCMDC: Inhibition Frequency Index (IFI). The number of non-kinase HTS assays where a compound showed > 50 % inhibition, expressed as a percentage of the number of such assays in which the compound was tested (-0 is zero); format: functional

Question: Which IFI does the source give for `COc1cc(C(=O)N2CCOC(CCN3CCC(Cc4ccc(F)cc4)CC3)(c3ccc(Cl)c(Cl)c3)C2)cc(OC)c1OC` (stereo unspecified) here?
Answer: 9.4%

Question: With `N#CCCN1CCN(Cc2cccc(-c3ccc(-c4nc5ccccc5[nH]4)s3)c2)CC1` as the molecule, how does the IFI read?
Answer: 1.41%

Question: With `OC(CNc1ccnc(Nc2cccc(Cl)c2)n1)c1ccccc1C(F)(F)F` (stereo unspecified) as the molecule, how does the IFI read?
Answer: 20.4%

Question: With `COc1ccc(S(=O)(=O)Nc2ccc(C(=O)NCc3ccc(C(F)(F)F)cc3)cc2)cc1N1CCN(CC2CC2)CC1` as the molecule, how does the IFI read?
Answer: 20%

Question: For `CC(C)COc1ccc(Cl)cc1Cc1nc(-c2nc3ccc(N4CCN(C)CC4)nc3[nH]2)cs1`, which IFI is on record?
Answer: 13.6%

Question: For `CC(C)N1CCN(c2ccc(OCCCN3CCN(c4cccc(Cl)c4Cl)CC3)c(C(F)(F)F)c2)CC1`, which IFI is on record?
Answer: 17.1%

Question: With `OC1CCCN(Cc2cccc(-c3ccc(-c4nc5cc(C(F)(F)F)ccc5[nH]4)cc3)c2)C1` (stereo unspecified) as the molecule, how does the IFI read?
Answer: 4.23%

Question: Which IFI does the source give for `OCc1ccc2nc3c(cc2c1)-c1cccc2cccc-3c12` here?
Answer: 2.94%

Question: With `CCCNCc1ccc(-c2ccc(CN(C(=O)c3nn(-c4ccccc4)nc3C)C(C)CN(C)C)cc2)nc1` (stereo unspecified) as the molecule, how does the IFI read?
Answer: 2.24%

Question: With `CN(C)Cc1cc2c(O)c(Cc3ccccc3)ccc2o1` as the molecule, how does the IFI read?
Answer: 0.68%

Question: Which IFI does the source give for `CN1CCN(CCCN(Cc2ccc(-c3cccc(CNCc4ccc5c(c4)OCO5)c3)cc2)C(=O)NC2CCCCC2)CC1` here?
Answer: 9.7%

Question: For `Cc1cc(Nc2ccccc2)nc(Nc2ccccc2C)n1`, which IFI is on record?
Answer: 2.13%

Question: For `Cc1cc(N[C@@H](Cc2ccccc2)C(=O)NC2CCCC2)nc(NCC2CCCCC2)n1`, which IFI is on record?
Answer: 26.2%

Question: With `COc1ccc(CCNCCCCCCNCCc2cccc([N+](=O)[O-])c2)cc1OC` as the molecule, how does the IFI read?
Answer: -0%

Question: Which IFI does the source give for `Cc1ccc(Nc2ccnc3cc(-c4nccs4)ccc23)cc1C(O)c1ccccc1` (stereo unspecified) here?
Answer: 7.04%

Question: With `c1cc(-c2ccc(CN3CCN(c4ccncc4)CC3)cc2)cc(-c2nc3ccccc3[nH]2)c1` as the molecule, how does the IFI read?
Answer: 7.62%

Question: For `Cc1c(Cc2ccc(F)cc2)c(Cl)nc2nc(N)nc(N)c12`, which IFI is on record?
Answer: 2.92%

Question: Which IFI does the source give for `N#Cc1cccc(C(O)C2CN(CCC3CCCCC3)CCC2(O)c2ccccc2)c1` (stereo unspecified) here?
Answer: 1.67%

Question: With `CC(C)CCN1CCCN(Cc2ccc(C(=O)Nc3ccc(C(C)(C)C)cc3)cc2)CC1` as the molecule, how does the IFI read?
Answer: 12.5%

Question: With `Cc1noc(C)c1-c1ccc2c(Nc3ccccc3C(C)(C)C)c(C(=O)NCc3ccccc3)cnc2c1` as the molecule, how does the IFI read?
Answer: 13.8%

Question: Which IFI does the source give for `OC(COCc1ccc(-c2ccccc2)cc1)CN1CCCCC1` (stereo unspecified) here?
Answer: -0%

Question: Which IFI does the source give for `Cc1ccc(OCCCON2C(=N)N=C(N)NC2(C)C)cc1C` here?
Answer: 3.57%

Question: For `CN(C)CC(=O)Nc1ccc(Nc2nccc(NCC(O)c3ccccc3)n2)cc1` (stereo unspecified), which IFI is on record?
Answer: 2.94%

Question: Which IFI does the source give for `COc1cc(CNCCC(C)C)ccc1OCc1cccc(COc2ccc(CNCCC(C)C)cc2OC)c1` here?
Answer: 12.1%

Question: For `CC(C)(C)c1ccc(NC(=O)c2ccc(CN3CCCN(Cc4cccc(C#N)c4)CC3)cc2)cc1`, which IFI is on record?
Answer: 14.5%

Question: Which IFI does the source give for `CCCCCCN1CCC(NCc2cccc(-n3ccnc3)c2)CC1` here?
Answer: 0.68%

Question: For `Nc1nc(N)c2c(ccc3c2cnn3S(=O)(=O)N2CCCC2)n1`, which IFI is on record?
Answer: 3.45%

Question: For `Nc1c2ccccc2nc2cc(C(F)(F)F)ccc12`, which IFI is on record?
Answer: 1.46%

Question: Which IFI does the source give for `Clc1cccc(-c2nc(Nc3ccnc(-c4ccc(CN5CCOCC5)cc4)c3)c3ccccc3n2)c1` here?
Answer: 3.64%

Question: Which IFI does the source give for `Cc1nc2nc(N)nc(N)c2c(C)c1Cc1ccc(C(F)(F)F)cc1` here?
Answer: 1.46%

Question: With `Cc1ccccc1C1CCN(C2CCC(NC(=O)c3cncc(-c4ccccc4)c3)CC2)CC1` (stereo unspecified) as the molecule, how does the IFI read?
Answer: 3.51%

Question: With `Cc1ccc(C)c2c1[nH]c1ccc(C3=NCCN3)cc12` as the molecule, how does the IFI read?
Answer: 5.71%

Question: With `N=C(N)NN=CC(=O)Nc1ccc(Br)cc1` as the molecule, how does the IFI read?
Answer: 2.27%

Question: With `COc1cccc(-c2ccc3c(-c4cccc(NC(C)=O)c4)cnc(N)c3c2)c1` as the molecule, how does the IFI read?
Answer: 15%

Question: With `Cc1oc(-c2ccccc2)nc1CCOc1ccc(C[C@H](Nc2ccccc2C(=O)c2ccccc2)C(=O)NCc2ccccn2)cc1` as the molecule, how does the IFI read?
Answer: 0.76%

Question: For `C=Cc1ccccc1C1(O)CCN(CCCCNC(=O)c2ccc(-c3ccc(C#N)cc3)cc2)CC1`, which IFI is on record?
Answer: 6.92%

Question: With `Cc1ccc(Nc2nc(C)cc(Nc3cccc(C#N)c3)n2)cc1` as the molecule, how does the IFI read?
Answer: 6.35%

Question: With `O=c1ccc2ccc(F)c3c2n1CC3CN1CCC(NCc2cccc(-c3ccccc3F)c2)CC1` (stereo unspecified) as the molecule, how does the IFI read?
Answer: 1.82%

Question: Which IFI does the source give for `CC(=O)c1ccc(NC(=O)NNC(=O)c2ccc(CCN3CCC(c4nc(COCC(F)(F)F)c(-c5ccc(F)cc5)o4)CC3)cc2)cc1` here?
Answer: 3.6%

Question: With `CCN(CC)CCN(Cc1ccc(-c2ccc(C(F)(F)F)cc2)cc1)C(=O)Cn1c(CCc2ccc(F)c(F)c2)cc(=O)c2ccccc21` as the molecule, how does the IFI read?
Answer: 2.16%

Question: With `O=C(c1cccc(-c2cccc(-c3nc4ccccc4[nH]3)c2)c1)N1CCCCC1CN1CCC(O)C1` (stereo unspecified) as the molecule, how does the IFI read?
Answer: 0.97%

Question: With `CC(=O)Nc1csc(-c2cnc(/C=C(\C)C[C@@H]3OC[C@H](C[C@@H]4O[C@H]4[C@@H](C)[C@H](C)O)[C@@H](O)[C@H]3O)o2)c1` as the molecule, how does the IFI read?
Answer: 0.74%

Question: For `CCOC(=O)c1cncc(/C=C/c2cc(C)cnc2N)c1`, which IFI is on record?
Answer: 0%

Question: Which IFI does the source give for `CN1CCC(N(Cc2ccc(-c3ccc(C(F)(F)F)cc3)cc2)C(=O)Cn2c(SCc3cccc(F)c3F)cc(=O)c3c2CCC3)CC1` here?
Answer: 9.03%

Question: For `Cc1ccc2[nH]c3c(NCCCN4CCOCC4)ncnc3c2c1`, which IFI is on record?
Answer: 0%

Question: For `Cc1cccc2nc(-c3cccc(-c4cccc(NC(=O)Nc5ccc(F)c(F)c5F)c4)c3)[nH]c12`, which IFI is on record?
Answer: 6.86%

Question: With `O=C(NC1CCN(Cc2ccccc2)CC1)c1ccc(-c2nc3cc(Cl)c(F)cc3[nH]2)cc1` as the molecule, how does the IFI read?
Answer: 1.45%

Question: With `NC(=O)c1ccc(-n2cnc3cc(F)ccc32)cc1OCc1ccccc1C(F)(F)F.NC(=O)c1ccc(-n2cnc3ccc(F)cc32)cc1OCc1ccccc1C(F)(F)F` as the molecule, how does the IFI read?
Answer: 8.59%

Question: With `O=C(/C=C/c1ccc(Cl)c(Cl)c1)NCCCCCN1CCC(NC(=O)Nc2cccc(Cl)c2F)CC1` as the molecule, how does the IFI read?
Answer: 6%

Question: With `COCc1cc(C)nc2sc(C(=O)Nc3cc(C(C)(C)C)ccc3O)c(N)c12` as the molecule, how does the IFI read?
Answer: 3.57%

Question: With `CCn1c(-c2nonc2N)nc2c(-c3cccc(NC(=O)NCc4ccccc4)c3)ncc(OCCCN)c21` as the molecule, how does the IFI read?
Answer: 12.9%

Question: Which IFI does the source give for `Cc1cccc2nc(-c3cccc(-c4ccc(NC(=O)NC5CC5c5ccccc5)cc4)c3)[nH]c12` (stereo unspecified) here?
Answer: 4%

Question: With `CCCc1ccc(S(=O)(=O)NC2CCN(c3ccnc(Nc4ccc(OC)cc4)n3)C2)cc1` (stereo unspecified) as the molecule, how does the IFI read?
Answer: 14.7%

Question: For `Cc1cc(NC(=O)NCCN2CCC(NS(=O)(=O)c3cccc(Br)c3)C2)c2ccccc2n1` (stereo unspecified), which IFI is on record?
Answer: 0.87%

Question: With `Cc1cccc2nc(-c3ccc(-c4ccc(NC(=O)Nc5ccsc5)cc4)cc3)[nH]c12` as the molecule, how does the IFI read?
Answer: 8%

Question: For `CCCC1(NC[C@@H](O)[C@H](Cc2ccccc2)NC(=O)c2cc(NCC)cc(N3CCCCS3(=O)=O)c2)CCCCC1`, which IFI is on record?
Answer: 2.88%
